For one assay, the system named is HSkMC. Description: cytotoxicity call (relative viability < 0.9). As to conditions: 10 µM.
The subject of another assay is HepG2. Description: cytotoxicity call (relative viability < 0.9). Particulars: 10 µM.
The test system of a further assay is S. aureus RN4220. Description: growth inhibition call (relative growth <= 0.2). Particulars: 50 µM.

SMILES strings stand for the structures. The list shows a part of the results.

In the case of `COc1cc(C)c(C(=O)Oc2cc(C)c(C(=O)O)c(O)c2)c(O)c1`, the cytotoxicity call in the assay on HSkMC and in the assay on HepG2 was “inactive” in each case. The growth inhibition call with S. aureus RN4220 is “inactive”.

With `O=C(C[C@@H]1C=C[C@@H](NC(=O)c2cccc(F)c2)[C@H](CO)O1)NCCN1CCCC1`, the cytotoxicity call with HSkMC and in the assay with HepG2 was “inactive” in each case. For the same molecule, the growth inhibition call in the assay on S. aureus RN4220 is “inactive”.

In the case of `COc1cc(/C=C/C(=O)CC2=N/C(=N/CCc3ccccc3)S[C@H](c3ccc(O)c(OC)c3)C2)ccc1O`, the cytotoxicity call in the assay with HSkMC and in the assay with HepG2 was “inactive” each time. Moreover, in the assay on S. aureus RN4220, the growth inhibition call was “inactive”.

For the molecule `CN(C)CC(=O)N1[C@@H]2c3ccc(-c4cccnc4)c(=O)n3C[C@H]1[C@H](CO)[C@H]2C(=O)NC1CCC1`, the cytotoxicity call with HSkMC and in the assay on HepG2 was “inactive” each time. In addition, the growth inhibition call with S. aureus RN4220 is “inactive”.

In the case of `C[C@H](CO)N1C[C@H](C)[C@@H](CN(C)C(=O)Nc2ccc(C(F)(F)F)cc2)Oc2ccc(NC(=O)C3CCCCC3)cc2C1=O`, the cytotoxicity call in the assay on HSkMC and in the assay on HepG2 was “inactive” throughout. Besides, in the assay on S. aureus RN4220, the growth inhibition call is “inactive”.

Turning to `Cc1noc(C)c1NC(=O)Nc1cccc2c1O[C@@H](CN(C)C(=O)Nc1cccc3ccccc13)[C@H](C)CN([C@H](C)CO)C2=O`, the cytotoxicity call in the assay on HSkMC and with HepG2 was “inactive” in each case. Further, the growth inhibition call in the assay with S. aureus RN4220 is “inactive”.

As to `Cc1ccc(Nc2ncc3c(n2)N(C)C(=O)N(c2cc(NC(=O)c4cccc(C(F)(F)F)c4)ccc2C)C3)cn1`, the cytotoxicity call with HSkMC and with HepG2 was “active” each time. Besides, the growth inhibition call with S. aureus RN4220 was “inactive”.

Turning to `NC(=O)NC(=O)Cc1ccccc1`, the cytotoxicity call with HSkMC and in the assay on HepG2 was “inactive” each time. Also, the growth inhibition call in the assay on S. aureus RN4220 was “inactive”.

As for `Cc1ccc(S(=O)(=O)Nc2cccc3c2O[C@H](CN(C)S(=O)(=O)c2c(C)noc2C)[C@@H](C)CN([C@H](C)CO)C3=O)cc1`, the cytotoxicity call with HSkMC and with HepG2 was “inactive” each time. Also, the growth inhibition call in the assay on S. aureus RN4220 is “inactive”.

`Cc1nc(N)c(C(=O)O)nc1C`: the cytotoxicity call in the assay with HSkMC and with HepG2 was “inactive” in each case. The growth inhibition call in the assay on S. aureus RN4220 is “inactive”.

As for `CC(C)C#Cc1ccc2c(c1)O[C@H](CN(C)C(=O)c1cnccn1)[C@@H](C)CN([C@@H](C)CO)S2(=O)=O`, the cytotoxicity call with HSkMC and with HepG2 was “inactive” each time. Moreover, in the assay on S. aureus RN4220, the growth inhibition call is “inactive”.

As for `C[C@H](CO)N1C[C@H](C)[C@@H](CN(C)C(=O)NC2CCCCC2)Oc2ccc(NC(=O)Nc3cccc4ccccc34)cc2CC1=O`, the cytotoxicity call with HSkMC and in the assay with HepG2 was “inactive” each time. In the assay with S. aureus RN4220, the growth inhibition call is “inactive”.

As for `C[C@H]1CN([C@@H](C)CO)C(=O)c2cc(C#Cc3ccccc3F)cnc2O[C@@H]1CN(C)C(=O)C1CCOCC1`, the cytotoxicity call in the assay with HSkMC and with HepG2 was “inactive” throughout. Besides, the growth inhibition call with S. aureus RN4220 was “inactive”.

`C[C@@H]1CN([C@H](C)CO)C(=O)CCCn2cc(nn2)CO[C@H]1CN(C)S(=O)(=O)c1ccc(-c2ccccc2)cc1`: the cytotoxicity call in the assay on HSkMC and in the assay with HepG2 was “inactive” each time. Further, the growth inhibition call with S. aureus RN4220 was “inactive”.

In the case of `CC(=C\c1ccccc1)/C(C)=N/O`, the cytotoxicity call in the assay on HSkMC and in the assay on HepG2 was “inactive” each time. For the same molecule, the growth inhibition call with S. aureus RN4220 is “inactive”.

For the molecule `COc1ccc(S(=O)(=O)N[C@@H]2CC[C@H](CC(=O)N3CCN(c4ccccc4)CC3)O[C@H]2CO)cc1`, the cytotoxicity call in the assay with HSkMC and with HepG2 was “inactive” throughout. Besides, the growth inhibition call in the assay on S. aureus RN4220 was “inactive”.

Take `CN1C(=O)c2cc(NC(=O)Nc3cccc(C#N)c3)ccc2OC[C@H]2O[C@@H](CC(=O)Nc3ccc4c(c3)CCC4)CC[C@@H]21`: the cytotoxicity call in the assay on HSkMC and in the assay on HepG2 was “inactive” in each case. Also, the growth inhibition call in the assay with S. aureus RN4220 was “inactive”.

Take `C[C@@H]1CCCCO[C@H](CN(C)Cc2ccncc2)[C@@H](C)CN([C@H](C)CO)C(=O)c2cc(NC(=O)Cc3ccccc3)ccc2O1`: the cytotoxicity call with HSkMC and in the assay on HepG2 was “inactive” each time. Also, in the assay with S. aureus RN4220, the growth inhibition call was “inactive”.

With `COc1ccc2c3c([nH]c2c1)[C@@H](CO)N(C[C@]13CCN(CC1)CC1CCOCC1)S(=O)(=O)c1cn(cn1)C`, the cytotoxicity call with HSkMC and in the assay with HepG2 was “inactive” each time. In addition, in the assay on S. aureus RN4220, the growth inhibition call is “inactive”.

On to `NC1CCC(O)CC1` (stereo not drawn), for which the cytotoxicity call with HSkMC and in the assay with HepG2 was “inactive” each time. In addition, in the assay on S. aureus RN4220, the growth inhibition call is “inactive”.

As to `CC(C)NC(=O)N(C)C[C@H]1Oc2c(NS(=O)(=O)c3ccc(F)cc3)cccc2C(=O)N([C@@H](C)CO)C[C@H]1C`, the cytotoxicity call in the assay on HSkMC and in the assay with HepG2 was “inactive” throughout. Moreover, the growth inhibition call in the assay with S. aureus RN4220 was “inactive”.

`CN1CCN(C(=O)C[C@H]2CC[C@@H]3[C@H](COC[C@@H](O)CN3C(=O)C3CC3)O2)CC1`: the cytotoxicity call in the assay on HSkMC and with HepG2 was “inactive” in each case. For the same molecule, the growth inhibition call in the assay on S. aureus RN4220 was “inactive”.

Take `COCCOC(=O)N1C(=O)[C@@]2(c3cc(C#Cc4ccc(OC)cc4)ccc31)[C@H](c1ccccc1OCCO)N1[C@H](c3ccccc3)[C@H](c3ccccc3)OC(=O)[C@H]1[C@@H]2C(=O)N1CCc2cc(OC)c(OC)cc2C1`: the cytotoxicity call in the assay on HSkMC and in the assay with HepG2 was “inactive” each time. Further, the growth inhibition call in the assay on S. aureus RN4220 was “inactive”.

`Cc1ccc(S(=O)(=O)Nc2ccc3c(c2)C(=O)N([C@@H](C)CO)C[C@@H](C)[C@@H](CN(C)C(=O)CCC(F)(F)F)OCCCC[C@H](C)O3)cc1`: the cytotoxicity call in the assay with HSkMC and in the assay with HepG2 was “inactive” throughout. Besides, in the assay on S. aureus RN4220, the growth inhibition call was “inactive”.

As for `C[C@@H]1CN([C@@H](C)CO)C(=O)c2cc(NC(=O)Nc3cccc4ccccc34)ccc2O[C@@H](C)CCCCO[C@@H]1CN(C)S(=O)(=O)c1ccc(F)cc1`, the cytotoxicity call in the assay on HSkMC (human skeletal muscle cells) and with HepG2 was “inactive” throughout. Besides, the growth inhibition call in the assay on S. aureus RN4220 is “inactive”.

For `C[C@@H]1CCCCO[C@@H](CN(C)CC2CCCCC2)[C@@H](C)CN([C@H](C)CO)C(=O)c2cc(NC(=O)CCCCCC(=O)Nc3ccccc3N)ccc2O1`, the cytotoxicity call with HSkMC and in the assay on HepG2 was “inactive” each time. The growth inhibition call with S. aureus RN4220 is “inactive”.

(Values after the antibiotic and cytotoxicity screens of Wong et al. (2023).)
